Test results from PubChem BioAssay AID504339 (National Center for Advancing Translational Sciences (NCATS), 2011).
Among all 390,000 compounds or so, about 17,000 (4.4%) were called active. Inconclusive means that the source gave no clear call. Such entries were picked first, then a sample of the others. Calls come from the whole dose curve; as a rule, active = well fitted inhibition curve with a large enough effect; inconclusive = small, poorly fitted or top-dose-only effect; inactive = no such curve, though single readings can be large or run the other way. Where the call is inconclusive, the potency comes from a doubtful curve fit.
% is set by controls: 0 for no effect and ±100 for the full control effect; potency is the fitted concentration of half-maximal effect; tags give direction and shape of the fitted curve.
Note: nearly all actives have a fitted effect of over 50% in size.

The compounds below were run against Lysine-specific demethylase 4A (Homo sapiens) (UniProt O75164) (assay: qHTS Assay for Inhibitors of JMJD2A-Tudor Domain). Details: AlphaScreen JMJD2A-Tudor / H3K4me3 peptide binding; activity change, negative = inhibition: at 114 µM (top of the series).
Sequence of UniProt O75164 (O75164 whole entry, looked up, the tested form may be a part): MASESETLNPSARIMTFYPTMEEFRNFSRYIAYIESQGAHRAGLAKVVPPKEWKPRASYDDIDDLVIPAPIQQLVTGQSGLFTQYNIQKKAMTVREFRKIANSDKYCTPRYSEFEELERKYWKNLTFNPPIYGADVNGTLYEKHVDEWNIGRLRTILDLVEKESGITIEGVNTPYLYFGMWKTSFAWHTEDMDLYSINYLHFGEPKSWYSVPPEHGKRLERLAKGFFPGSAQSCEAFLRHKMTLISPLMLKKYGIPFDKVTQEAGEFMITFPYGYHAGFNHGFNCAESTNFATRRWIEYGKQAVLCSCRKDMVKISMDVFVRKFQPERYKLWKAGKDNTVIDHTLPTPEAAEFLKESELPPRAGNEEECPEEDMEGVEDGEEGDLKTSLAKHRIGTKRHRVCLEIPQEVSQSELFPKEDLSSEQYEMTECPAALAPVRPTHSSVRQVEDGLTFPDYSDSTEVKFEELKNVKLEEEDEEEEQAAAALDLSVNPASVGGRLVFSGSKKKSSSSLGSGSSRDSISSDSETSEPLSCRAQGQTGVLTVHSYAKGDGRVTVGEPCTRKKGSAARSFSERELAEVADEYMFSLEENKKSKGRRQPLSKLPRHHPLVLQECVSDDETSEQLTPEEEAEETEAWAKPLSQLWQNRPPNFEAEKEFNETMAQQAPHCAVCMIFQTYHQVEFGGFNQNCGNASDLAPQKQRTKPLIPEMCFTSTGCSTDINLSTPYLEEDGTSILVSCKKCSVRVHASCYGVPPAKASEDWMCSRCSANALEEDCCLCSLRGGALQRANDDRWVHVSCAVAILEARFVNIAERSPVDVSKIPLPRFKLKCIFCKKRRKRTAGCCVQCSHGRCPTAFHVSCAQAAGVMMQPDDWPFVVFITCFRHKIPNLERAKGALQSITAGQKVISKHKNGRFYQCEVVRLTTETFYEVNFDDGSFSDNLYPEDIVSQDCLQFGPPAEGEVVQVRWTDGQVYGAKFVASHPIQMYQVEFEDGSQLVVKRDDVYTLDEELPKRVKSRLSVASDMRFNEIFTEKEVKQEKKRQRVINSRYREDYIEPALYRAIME
COC(=O)c1c(NC(=S)Nc2ccc(F)cc2[N+](=O)[O-])sc2c1CCCCC2 was tested, and the Potency was inconclusive: 44.7 µM [inhibitor, partial curve].
For CCn1c2ccccc2c2cc(N)ccc21, the Potency was inconclusive: 50.1 µM [inhibitor, partial curve].
COc1ccc(-n2c(C)cc(C(=O)CSc3nnc(-c4cccs4)o3)c2C)cc1 was tested, and the Potency was active: 56.2 µM.
CC(C)c1ccc(NC(=O)C2CCCN2S(=O)(=O)c2ccccc2F)cc1 (configuration not stated) was tested, and the Potency was inconclusive: 100 µM [inhibitor, partial curve].
In the case of CC1CCCCN1Cc1nc2ccccc2c(=O)[nH]1 (configuration not stated), the Potency is reported as active: 79.4 µM.
In the case of Cn1c(=O)[nH]c(NCCc2ccc(O)cc2)c([N+](=O)[O-])c1=O, the “activity change, negative = inhibition” value is reported as inactive: -11.8%.
In the case of CCc1nc(SCC(=O)c2cccc([N+](=O)[O-])c2)n[nH]1, the Potency is reported as active: 39.8 µM.
With O=S(=O)(c1ccc(Cl)cc1)c1nc(-c2ccccc2)oc1N1CCN(c2ccccc2)CC1 the “activity change, negative = inhibition” value was inactive: -31.2%.
For CC(C)c1nc2sc3c(=O)[nH]c(=S)[nH]c3c2c2c1CCCC2, the Potency was inconclusive: 31.6 µM [inhibitor, single point].
COc1ccccc1-c1ccc(/C=C2/C=C(CC(C)C)OC2=O)o1 was tested, and the Potency was inconclusive: 39.8 µM [inhibitor, partial curve].
For Cc1ccc2sc(NNC(=O)c3ccc4c(c3)OCCO4)nc2c1C, the Potency was inconclusive: 14.1 µM [inhibitor, partial curve].
For COc1ccc(C(=O)NCC(c2ccc(N(C)C)cc2)N2CCc3ccccc32)cc1 (configuration not stated), the Potency was active: 7.08 µM.
For CCOC(=O)c1ccc(N2C(=O)c3n[nH]c(-c4ccco4)c3C2c2ccc([N+](=O)[O-])cc2)cc1 (configuration not stated), the Potency was inconclusive: 22.4 µM [inhibitor, full curve].
In the case of Cc1ccccc1OCC(=O)Nc1cc(S(=O)(=O)N2CCCCC2)ccc1N1CCN(C)CC1, the Potency is reported as inconclusive: 44.7 µM [inhibitor, partial curve].
O=C(NC1CC(=O)N(c2cccc(F)c2)C1)C(c1ccccc1)c1ccccc1 (configuration not stated) was tested, and the “activity change, negative = inhibition” value was inactive: 0.974%.
For CN(C)c1ccc(C(CNC(=O)c2ccccc2)c2c[nH]c3ccccc23)cc1 (configuration not stated), the Potency was inconclusive: 35.5 µM [inhibitor, single point].
O=C(C1=C(O)C(=O)N(CC2CCCO2)C1c1cccnc1)c1ccco1 (configuration not stated) was tested, and the Potency was inconclusive: 89.1 µM [inhibitor, single point].
CCOC(=O)c1cccc(C2=CC(=O)CC(C)(C)C2)c1 was tested, and the “activity change, negative = inhibition” value was inactive: -15%.
With CCCC(=O)N(Cc1cc(=O)[nH]c2ccccc12)c1ccc(C)cc1C the “activity change, negative = inhibition” value was inactive: -16.7%.
Cc1sc2ncnc(N3CCN(Cc4ccccc4)CC3)c2c1-c1ccccc1 was tested, and the Potency was inconclusive: 39.8 µM [inhibitor, partial curve].
In the case of CC1Sc2ccc(S(=O)(=O)CCC(=O)N3CCCC3)cc2NC1=O (configuration not stated), the “activity change, negative = inhibition” value is reported as inactive: 3.76%.
With Cc1cccc(N=CC=C2OC(C)(C)C(C)(C)O2)c1 the “activity change, negative = inhibition” value was inactive: -13.9%.
In the case of CCc1ccc(C2=NNC(=Nc3cccc(S(=O)(=O)N(C)C)c3)SC2)cc1, the “activity change, negative = inhibition” value is reported as inactive: -21.6%.
For CCCCc1nc2ccccc2c(NC(=O)CN2CCN(C)CC2)c1CCC, the Potency was active: 0.708 µM.
With Cn1cccc1Cc1nnc(SCC(=O)N2CCN(c3ccccc3)CC2)n1-c1ccc(F)cc1 the Potency was inconclusive: 50.1 µM [inhibitor, partial curve].
For CCn1c(=O)cc(OCC(=O)N2CCN(c3ccccc3OC)CC2)c2ccccc21, the “activity change, negative = inhibition” value was inactive: -12.1%.
For O=C(OCC(=O)N1CCCC1=O)c1nc(Cl)ccc1Cl, the “activity change, negative = inhibition” value was inactive: -14.9%.
With CCOC(=O)C1CCC/C1=N\NC(=O)CN(c1cc(OC)ccc1OC)S(=O)(=O)c1ccccc1 (configuration not stated) the “activity change, negative = inhibition” value was inactive: -18.2%.
In the case of COc1ccc(-n2c(-c3ccco3)nc3c(cnn3-c3ccccc3C)c2=O)cc1, the Potency is reported as inconclusive: 5.62 µM [inhibitor, full curve].
In the case of O=S(=O)(Nc1nccs1)c1ccc(Nc2nnc(-c3ccccc3)c3ccccc23)cc1, the Potency is reported as inconclusive: 11.2 µM [inhibitor, partial curve, poor fit].
With COc1ccc2sc(/C=C/c3ccccc3O)[n+](C)c2c1 the Potency was inconclusive: 44.7 µM [inhibitor, partial curve].
With O=C(CSc1nnc(Cc2ccccc2)o1)N1CCc2ccccc21 the “activity change, negative = inhibition” value was inactive: 3.56%.
In the case of CCOC(=O)c1c(C)oc2nc(C)nc(NCCCN3CCN(c4ccc(F)cc4)CC3)c12, the Potency is reported as inconclusive: 44.7 µM [inhibitor, partial curve].
For COC(=O)c1cccc(NC2CC(=O)N(c3ccc(OC)c(OC)c3)C2=O)c1 (configuration not stated), the “activity change, negative = inhibition” value was inactive: -15.4%.
In the case of COc1ccc(NC(=S)Nc2ncccc2C)cc1OC, the Potency is reported as inconclusive: 11.2 µM [inhibitor, partial curve].
In the case of COc1cc(C(C)=O)ccc1OCCCN1CCC(Cc2ccccc2)CC1, the Potency is reported as inconclusive: 56.2 µM [inhibitor, partial curve].
N#CC1=C2SCN(Cc3ccco3)CN2C(=O)CC1c1ccc(Cl)cc1 (configuration not stated) was tested, and the Potency was inconclusive: 89.1 µM [inhibitor, single point].
For O=C(O)CSc1nc2ccccc2n1Cc1ccccc1, the Potency was active: 89.1 µM.
In the case of Cc1cccc(C)c1OCc1cc(C(=O)N(Cc2nccn2C)C(C)C)no1, the “activity change, negative = inhibition” value is reported as inactive: -23.4%.
With Cc1cc(NS(=O)(=O)c2ccc(NS(=O)(=O)c3ccc(CC(C)C)cc3)cc2)nc(C)n1 the “activity change, negative = inhibition” value was inactive: -6.29%.
With CS(=O)(=O)c1ccc2nc(NC(=O)c3ccc(NS(=O)(=O)c4cccc([N+](=O)[O-])c4)cc3)sc2c1 the “activity change, negative = inhibition” value was inactive: 0.68%.
For CN(CC(=O)Nc1cccc(F)c1)C(=O)c1ccc(NC2CC2)c([N+](=O)[O-])c1, the Potency was inconclusive: 50.1 µM [inhibitor, partial curve].
With O=C(NC1=NCCS1)[C@H](Cc1ccccc1)N1C(=O)c2ccccc2C1=O the “activity change, negative = inhibition” value was inactive: -19.4%.
In the case of Cc1ccc2oc(=O)c(/C=C(\O)c3cccs3)nc2c1, the “activity change, negative = inhibition” value is reported as inactive: -2.14%.
With Cc1noc(C)c1C(=O)N1CCN(c2ccc(OCc3ccccc3)cc2)CC1 the Potency was inconclusive: 89.1 µM [inhibitor, partial curve].
For O=C(O)c1ccc(C(=O)Nc2cccc3cccnc23)cc1, the Potency was inconclusive: 50.1 µM [inhibitor, partial curve].
In the case of CCN(CC)S(=O)(=O)c1ccc(/C=C/C(=O)Nc2ccc(N3CCOCC3)cc2)cc1, the Potency is reported as inconclusive: 28.2 µM [inhibitor, full curve].
